From the supplement of paper PMC2702839 come the findings set out here.

Counter-ions that a name gives are not always drawn. This is one part of the list.

This assay relates to Schistosoma mansoni schistosomula. Briefly: phenotypic hit in primary schistosomula screen (any phenotype vs DMSO control) (binary (1 = hit, 0 = no phenotype)); higher = active (phenotype induced). The note with it: 1 µM; time (d): 7.
Consider `CCN(CC)CCNC(=O)c1cc(Br)c(N)cc1OC` [bromopride], for which the phenotypic hit was inactive: 0.

For `C[C@H]1C(=O)CC[C@@H]2[C@]1(C)CC[C@H]1[C@@]2(C)CC[C@@]2(C)[C@@H]3CC(C)(C)CC[C@]3(C)CC[C@]12C` [friedelin], the phenotypic hit was inactive: 0. The figure for `OC(CCN1CCCCC1)(c1ccccc1)c1ccccc1` [pridinol methanesulfonate] is inactive: 0; for `CCCCC(=O)N(Cc1ccc(-c2ccccc2-c2nnn[nH]2)cc1)[C@H](C(=O)O)C(C)C` [valsartan] it is inactive: 0. The result for `O=C(O)c1cc(=O)c2ccccc2[nH]1` [Kynurenic acid] reads inactive: 0; that for `CC(C)NNC(=O)c1ccncc1` [Iproniazid phosphate], inactive: 0. For `O=C1c2cccc(O)c2C(=O)c2c(O)cccc21` [dantron], the phenotypic hit was inactive: 0.

`COc1ccc(-c2cc(=O)c3c(O)cc(O[C@H]4O[C@H](CO[C@@H]5O[C@@H](C)[C@H](O)[C@@H](O)[C@H]5O)[C@@H](O)[C@H](O)[C@H]4O)cc3o2)cc1` [buddleoflavonoloside]: the phenotypic hit was inactive: 0. `COc1cc(C(=O)O)c(O)c2c1OCO2` [2-demethylapiolic acid]: the phenotypic hit was inactive: 0. The figure for `CCOC(N)=O` [urethane] is inactive: 0. The figure for `O=c1c(O)cccc2c([C@H]3Oc4cc(O)cc(O)c4C[C@H]3O)cc(O)c(O)c12` [theaflavanin] is active: 1.

Take `C[C@@H]1CC[C@@]2(OC1)O[C@H]1C[C@H]3[C@@H]4CC=C5C[C@@H](O)CC[C@]5(C)[C@H]4CC[C@]3(C)[C@H]1[C@@H]2C` [diosgenin]: the phenotypic hit was inactive: 0. The figure for `Nc1ccc(C(=O)O)c(O)c1` [sodium p-aminosalicylate] is inactive: 0; for `Cc1cc(=O)c2c(O)cc(O)c(C)c2o1` [isoeugenitol] it is inactive: 0.

For the compound `O=C(O)c1ccccc1Nc1cccc(C(F)(F)F)c1` [flufenamic acid], the phenotypic hit was inactive: 0. The result for `CSCCC(NC=O)C(=O)NC(C)C(=O)O` (configuration not stated) [n-formylmethionylalanine] reads inactive: 0; that for `Clc1ccc(C(c2ccccc2Cl)C(Cl)Cl)cc1` (configuration not stated) [mitotane], inactive: 0. With `O=C1O[C@H]([C@@H](O)CO)C(O)=C1O` [ascorbic acid], the phenotypic hit is inactive: 0. Regarding `Nc1ccc(/N=N/c2ccccc2)c(N)n1` [phenazopyridine hydrochloride], the phenotypic hit was inactive: 0. The figure for `CN(C)CCOC(=O)C(c1ccccc1)C1(O)CCCC1` (configuration not stated) [cyclopentolate hydrochloride] is inactive: 0.

As for `CC1=CC(=O)C2=C(C)CC[C@@H]3[C@H](OC(=O)[C@H]3C)[C@@H]12` [leucodin], the phenotypic hit was inactive: 0. The figure for `O=C(/C=C/c1ccccc1)c1ccc(O)cc1` [4'-hydroxychalcone] is inactive: 0; for `O=C(O)c1ccc2c(c1)OCO2` [piperonylic acid] it is inactive: 0; for `NCCCS(=O)(=O)O` [3-aminopropanesulphonic acid] it is inactive: 0.

`CC(C)CCC[C@@H](C)[C@H]1CC[C@H]2[C@@H]3CC[C@@H]4C[C@H](O)CC[C@]4(C)[C@H]3CC[C@]12C` [epicoprosterol]: the phenotypic hit was inactive: 0. The result for `Nc1nc(/C(=C/CC(=O)O)C(=O)N[C@@H]2C(=O)N3C(C(=O)O)=CCS[C@H]23)cs1` [ceftibuten] reads inactive: 0; that for `COc1cccc2c(C)cc(=O)[nH]c12` [2-hydroxy-8-methoxylepidine], active: 1.

Consider `CCC1(C)CC(=O)NC1=O` (configuration not stated) [ethosuximide], for which the phenotypic hit is inactive: 0. The figure for `CC(NCCc1ccc(O)cc1)C(O)c1ccc(O)cc1` (configuration not stated) [ritodrine hydrochloride] is inactive: 0. The result for `O=C1CC[C@]23/C=C/C(=O)NCCCCNCCCNC(=O)/C=C/c4ccc(c2c4)O[C@@H]3C1` [lunarine] reads inactive: 0. The figure for `NNC(=O)c1ccncc1.Nc1ccc(C(=O)O)c(O)c1` [pasiniazid] is inactive: 0. Regarding `COc1cc(O)c(C(=O)/C=C/c2ccccc2)c(OC)c1` [flavokawain b], the phenotypic hit is inactive: 0. The result for `CCCc1nn(C)c2c(=O)[nH]c(-c3cc(S(=O)(=O)N4CCN(C)CC4)ccc3OCC)nc12` [sildenafil] reads inactive: 0; that for `CCC(C)(C)C(=O)O[C@H]1C[C@@H](C)C=C2C=C[C@H](C)[C@H](CC[C@@H]3C[C@@H](O)CC(=O)O3)[C@H]21` [simvastatin], active: 1. For `C[C@@H]1CN(c2c(F)c(F)c3c(=O)c(C(=O)O)cn(C4CC4)c3c2F)C[C@H](C)N1` [orbifloxacin], the phenotypic hit is inactive: 0. In the case of `CC(=O)Oc1ccc(C(c2ccc(OC(C)=O)cc2)c2ccccn2)cc1` [bisacodyl], the phenotypic hit was inactive: 0.

Consider `CC1(C)CC2C1CC[C@]1(CBr)CCC3C(CC(=O)O)C(=O)O[C@@]32C1` (some centres not stated) [bromo-3-hydroxy-4- (succin-2-yl)-caryolane gamma-lactone], for which the phenotypic hit is inactive: 0. The figure for `CC(=O)[C@@]1(O)CC[C@H]2[C@@H]3CCC4=CC(=O)CC[C@]4(C)[C@H]3CC[C@@]21C` [hydroxyprogesterone] is inactive: 0; for `Oc1ccc2c(c1)OC[C@H]1c3cc4c(cc3O[C@@H]21)OCO4` [maackiain] it is inactive: 0; for `C[C@H]1[C@H](C)CC[C@]2(C(=O)O)CC[C@]3(C)C(=CC[C@@H]4[C@@]5(C)CC[C@H](O)C(C)(C)[C@@H]5CC[C@]43C)[C@H]12` [ursolic acid] it is inactive: 0. The result for `Oc1cc2c(cc1O)C1c3ccc(O)c(O)c3OCC1(O)C2` (configuration not stated) [haematoxylin] reads inactive: 0. Consider `NC1(C(=O)O)CC1` [aminocyclopropanecarboxylic acid], for which the phenotypic hit was inactive: 0. The result for `CC(=O)O[C@@H]1C[C@H]2C(C)(C)C(=O)C=C[C@]2(C)[C@H]2CC[C@@]3(C)[C@H](c4ccoc4)OC(=O)[C@H]4O[C@]43[C@@]21C` [gedunin] reads inactive: 0. The figure for `CSCC[C@H](NC=O)C(=O)N[C@@H](Cc1ccccc1)C(=O)O` [n-formylmethionylphenylalanine] is inactive: 0. As for `COc1cc2oc(=O)c3oc4c5c(ccc4c(=O)c3c2cc1OC)OC(C)(C)CC5` [beta-dihydrorotenone], the phenotypic hit was inactive: 0. The result for `C[C@@H]1CC[C@@]23CCC4(C)[C@@](C=CC5[C@@]6(C)CC[C@H](O)C(C)(C)C6CC[C@]54C)(OC2=O)C3[C@H]1C` (some centres not stated) [dehydro (11,12)ursolic acid lactone] reads active: 1. As for `CN(C)CCOC(c1ccccc1)c1ccccc1.Cn1c(=O)c2[nH]c(Cl)nc2n(C)c1=O` [dimenhydrinate], the phenotypic hit was inactive: 0.

On to `COc1cc(C)c(C(=O)Oc2cc(C)c(C(=O)O)c(O)c2C)c(OC)c1C` [diffractaic acid], for which the phenotypic hit is active: 1. The result for `O=C1NCC2(CCN(CCc3ccccc3)CC2)O1` [fenspiride hydrochloride] reads inactive: 0. The result for `CCCNC(=O)NS(=O)(=O)c1ccc(Cl)cc1` [Chlorpropamide] reads inactive: 0; that for `CCN(CC)C(C)CN1c2ccccc2Sc2ccccc21` (configuration not stated) [ethopropazine hydrochloride], inactive: 0; that for `O=C1CCCCC/C=C\CCCCCCCCO1` [ambrettolide], inactive: 0. For the compound `N=C(N)NCCCCNC(=N)N` [Arcaine sulfate], the phenotypic hit is inactive: 0. Regarding `Clc1cccc(Cl)c1NC1=NCCN1` [Clonidine hydrochloride], the phenotypic hit is inactive: 0. Take `C=CC(C)(C)c1c2c(c(O)c3c(=O)c4ccc(O)c(O)c4oc13)C=CC(C)(C)O2` [macluroxanthone]: the phenotypic hit is inactive: 0. On to `NCCCCCC(=O)O` [aminocaproic acid], for which the phenotypic hit is inactive: 0. For `CNCCc1ccccn1` [betahistine hydrochloride], the phenotypic hit is inactive: 0. The result for `NC(Cn1ccc(=O)c(O)c1)C(=O)O` (configuration not stated) [mimosine] reads inactive: 0; that for `CN1CCN(CC(=O)N2c3ccccc3C(=O)Nc3cccnc32)CC1` [Pirenzepine dihydrochloride], inactive: 0.

For `COC(=O)Nc1nc2cc(Sc3ccccc3)ccc2[nH]1` [fenbendazole], the phenotypic hit is inactive: 0. `COc1ccccc1-c1cc(=O)c2c(OC)cccc2o1` [5,2'-dimethoxyflavone]: the phenotypic hit is inactive: 0. On to `CC(=O)OC1CC(O)C(C)(C)C2CC(=O)C3(C)C(CCC4(C)C(c5ccoc5)OC(=O)C5OC543)C12C` (configuration not stated) [7-deacetoxy-3-deacetyl-7-oxokhivorin], for which the phenotypic hit is inactive: 0. The result for `C[C@@](Cc1ccc(O)c(O)c1)(NN)C(=O)O` [carbidopa] reads inactive: 0; that for `O=c1[nH]cnc2nc[nH]c12` [hypoxanthine], inactive: 0. The figure for `Nc1ncnc2c1ncn2[C@@H]1O[C@H](CO)[C@@H](O)[C@@H]1O` [vidarabine] is inactive: 0; for `CCC1(c2ccccc2)C(=O)NCNC1=O` [Primidone] it is inactive: 0; for `N#Cc1ccc2c(c1)N(CCCN1CCC(O)CC1)c1ccccc1S2` [periciazine] it is inactive: 0. The result for `Oc1c(Cl)cc(Cl)c2cccnc12` [chloroxine] reads inactive: 0; that for `NC[C@@H]1O[C@H](O[C@H]2[C@@H](O)[C@H](O[C@@H]3[C@@H](O)[C@H](N)C[C@H](N)[C@H]3O[C@H]3O[C@H](CO)[C@@H](O)C[C@H]3N)O[C@@H]2CO)[C@H](N)[C@@H](O)[C@@H]1O[C@H]1O[C@H](CO)[C@@H](O)[C@H](O)[C@@H]1O` [lividomycin sulfate], inactive: 0; that for `CN(C)CCC(c1ccc(Br)cc1)c1ccccn1` (configuration not stated) [brompheniramine maleate], inactive: 0. Regarding `COC(=O)c1c(OC)cc2c(c1C)Oc1c(Cl)c(O)c(Cl)c(C)c1C(=O)O2` [gangaleoidin], the phenotypic hit is inactive: 0.

In the case of `COc1cc(CNC(=O)CCCC/C=C/C(C)C)ccc1O` [e-capsaicin], the phenotypic hit is inactive: 0.
